Measurements: publication PMC12820563, “FoxP3 forms a head-to-head dimer in vivo and stabilizes its multimerization on adjacent microsatellites”
Some of the results follow.

Target: T1, MBP-FoxP1dN (Mus musculus, UniProt P58462 326-579)
T1 sequence: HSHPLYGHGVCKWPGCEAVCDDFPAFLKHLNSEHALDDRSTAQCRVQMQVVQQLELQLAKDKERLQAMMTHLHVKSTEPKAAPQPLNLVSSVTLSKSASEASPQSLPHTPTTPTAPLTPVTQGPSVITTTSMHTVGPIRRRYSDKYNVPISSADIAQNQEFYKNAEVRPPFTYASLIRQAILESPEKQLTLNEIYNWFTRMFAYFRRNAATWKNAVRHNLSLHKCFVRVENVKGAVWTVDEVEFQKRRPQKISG
Assay: PD-seq (MBP pull-down with sequencing); 20 mM Tris-HCl pH 7.5, 100 mM NaCl, 1.5 mM MgCl2, 0.4 uM protein, 0.1 uM dsDNA library, 30 min, room temperature, amylose pull-down; high values mean tight binding
Settings: protein: recombinant; tags: His6-MBP; chain copies: 2; dsDNA, one strand shown
Procedure, shortened: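 Binding is given as reads-per-million enrichment, pull-down over input, with replicates pooled. The bait was an N-terminus-lacking mouse FoxP3 or FoxP1 fragment with a His6-MBP tag, expressed in E. coli and used at 0.4 µM with 0.1 µM Klenow-filled degenerate double-stranded DNA library for 30 min at room temperature in Tris pH 7.5 buffer with NaCl and MgCl2. Amylose resin pull-down with three washes was followed by proteinase K release, PCR barcoding and Illumina sequencing.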

| Sequence | binding signal |
| --- | --- |
| GATGATTGTTCTCCCAGCTGATGAATTGTAAGCGTCGAGTAAACAAATTTTCCTAATCTTTCTGTTCAAGCGCCATCTAC | 1.03 RPM ratio (pull-down/input) |
| GATGATTGTTCTCCCAGCTGATGAATTATAGTCCTCGAGTAAACAAATTTTCCTAATCTTTCTGTTCAAGCGCCATCTAC | 0.883 RPM ratio (pull-down/input) |
| GATGATTGTTCTCCCAGCTGATGAATTAGCTGAATCGAGTAAACAAATTTTCCTAATCTTTCTGTTCAAGCGCCATCTAC | 0.949 RPM ratio (pull-down/input) |
| GATGATTGTTCTCCCAGCTGATGAATTCTGTGGTTCGAGTAAACAAATTTTCCTAATCTTTCTGTTCAAGCGCCATCTAC | 0.982 RPM ratio (pull-down/input) |
| GATGATTGTTCTCCCAGCTGATGAATTTCCAGGATCGAGTAAACAAATTTTCCTAATCTTTCTGTTCAAGCGCCATCTAC | 0.804 RPM ratio (pull-down/input) |
| GATGATTGTTCTCCCAGCTGATGAATTGTTGCTATCGAGTAAACAAATTTTCCTAATCTTTCTGTTCAAGCGCCATCTAC | 1.72 RPM ratio (pull-down/input) |
| GATGATTGTTCTCCCAGCTGATGAATTAATTACTTCGAGTAAACAAATTTTCCTAATCTTTCTGTTCAAGCGCCATCTAC | 1.18 RPM ratio (pull-down/input) |
| GATGATTGTTCTCCCAGCTGATGAATTGGCCTGTTCGAGTAAACAAATTTTCCTAATCTTTCTGTTCAAGCGCCATCTAC | 0.821 RPM ratio (pull-down/input) |
| GATGATTGTTCTCCCAGCTGATGAATTTAGCTTATCGAGTAAACAAATTTTCCTAATCTTTCTGTTCAAGCGCCATCTAC | 1.15 RPM ratio (pull-down/input) |
| GATGATTGTTCTCCCAGCTGATGAATTCAAGGGCTCGAGTAAACAAATTTTCCTAATCTTTCTGTTCAAGCGCCATCTAC | 0.745 RPM ratio (pull-down/input) |
| GATGATTGTTCTCCCAGCTGATGAATTTCTGTCGTCGAGTAAACAAATTTTCCTAATCTTTCTGTTCAAGCGCCATCTAC | 0.96 RPM ratio (pull-down/input) |
| GATGATTGTTCTCCCAGCTGATGAATTTAGGGATTCGAGTAAACAAATTTTCCTAATCTTTCTGTTCAAGCGCCATCTAC | 0.973 RPM ratio (pull-down/input) |
| GATGATTGTTCTCCCAGCTGATGAATTGCTTCAGTCGAGTAAACAAATTTTCCTAATCTTTCTGTTCAAGCGCCATCTAC | 1 RPM ratio (pull-down/input) |
| GATGATTGTTCTCCCAGCTGATGAATTGAACGCTTCGAGTAAACAAATTTTCCTAATCTTTCTGTTCAAGCGCCATCTAC | 0.864 RPM ratio (pull-down/input) |
| GATGATTGTTCTCCCAGCTGATGAATTGCCACTTTCGAGTAAACAAATTTTCCTAATCTTTCTGTTCAAGCGCCATCTAC | 1.1 RPM ratio (pull-down/input) |
| GATGATTGTTCTCCCAGCTGATGAATTTGTCCGGTCGAGTAAACAAATTTTCCTAATCTTTCTGTTCAAGCGCCATCTAC | 0.891 RPM ratio (pull-down/input) |
| GATGATTGTTCTCCCAGCTGATGAATTGAGTTGATCGAGTAAACAAATTTTCCTAATCTTTCTGTTCAAGCGCCATCTAC | 1.01 RPM ratio (pull-down/input) |
| GATGATTGTTCTCCCAGCTGATGAATTAAAACTATCGAGTAAACAAATTTTCCTAATCTTTCTGTTCAAGCGCCATCTAC | 0.983 RPM ratio (pull-down/input) |
| GATGATTGTTCTCCCAGCTGATGAATTTCGCCATTCGAGTAAACAAATTTTCCTAATCTTTCTGTTCAAGCGCCATCTAC | 0.883 RPM ratio (pull-down/input) |
| GATGATTGTTCTCCCAGCTGATGAATTAGTGAATTCGAGTAAACAAATTTTCCTAATCTTTCTGTTCAAGCGCCATCTAC | 0.981 RPM ratio (pull-down/input) |

| Sequence | binding signal |
| --- | --- |
| GATGATTGTTCTCCCAGCTGATGAATTACAAGACTCGAGTAAACAAATTTTCCTAATCTTTCTGTTCAAGCGCCATCTAC | 1.07 RPM ratio (pull-down/input) |
| GATGATTGTTCTCCCAGCTGATGAATTTGCCAGGTCGAGTAAACAAATTTTCCTAATCTTTCTGTTCAAGCGCCATCTAC | 0.797 RPM ratio (pull-down/input) |
| GATGATTGTTCTCCCAGCTGATGAATTATGGTAATCGAGTAAACAAATTTTCCTAATCTTTCTGTTCAAGCGCCATCTAC | 1.46 RPM ratio (pull-down/input) |
| GATGATTGTTCTCCCAGCTGATGAATTCAAACCTTCGAGTAAACAAATTTTCCTAATCTTTCTGTTCAAGCGCCATCTAC | 0.838 RPM ratio (pull-down/input) |
| GATGATTGTTCTCCCAGCTGATGAATTACCGAGTTCGAGTAAACAAATTTTCCTAATCTTTCTGTTCAAGCGCCATCTAC | 0.938 RPM ratio (pull-down/input) |
| GATGATTGTTCTCCCAGCTGATGAATTTGGGTGATCGAGTAAACAAATTTTCCTAATCTTTCTGTTCAAGCGCCATCTAC | 0.896 RPM ratio (pull-down/input) |
| GATGATTGTTCTCCCAGCTGATGAATTTGCTTATTCGAGTAAACAAATTTTCCTAATCTTTCTGTTCAAGCGCCATCTAC | 1.64 RPM ratio (pull-down/input) |
| GATGATTGTTCTCCCAGCTGATGAATTTGCGGGTTCGAGTAAACAAATTTTCCTAATCTTTCTGTTCAAGCGCCATCTAC | 0.893 RPM ratio (pull-down/input) |
| GATGATTGTTCTCCCAGCTGATGAATTCCGCGGTTCGAGTAAACAAATTTTCCTAATCTTTCTGTTCAAGCGCCATCTAC | 0.838 RPM ratio (pull-down/input) |
| GATGATTGTTCTCCCAGCTGATGAATTGGCTTTATCGAGTAAACAAATTTTCCTAATCTTTCTGTTCAAGCGCCATCTAC | 1 RPM ratio (pull-down/input) |
| GATGATTGTTCTCCCAGCTGATGAATTCGCCGTTTCGAGTAAACAAATTTTCCTAATCTTTCTGTTCAAGCGCCATCTAC | 0.798 RPM ratio (pull-down/input) |
| GATGATTGTTCTCCCAGCTGATGAATTTGATAAATCGAGTAAACAAATTTTCCTAATCTTTCTGTTCAAGCGCCATCTAC | 1.14 RPM ratio (pull-down/input) |
| GATGATTGTTCTCCCAGCTGATGAATTCAATATATCGAGTAAACAAATTTTCCTAATCTTTCTGTTCAAGCGCCATCTAC | 1.06 RPM ratio (pull-down/input) |
| GATGATTGTTCTCCCAGCTGATGAATTTGACCCTTCGAGTAAACAAATTTTCCTAATCTTTCTGTTCAAGCGCCATCTAC | 0.866 RPM ratio (pull-down/input) |
| GATGATTGTTCTCCCAGCTGATGAATTATTACGATCGAGTAAACAAATTTTCCTAATCTTTCTGTTCAAGCGCCATCTAC | 1.07 RPM ratio (pull-down/input) |
| GATGATTGTTCTCCCAGCTGATGAATTCGCTCGTTCGAGTAAACAAATTTTCCTAATCTTTCTGTTCAAGCGCCATCTAC | 0.867 RPM ratio (pull-down/input) |
| GATGATTGTTCTCCCAGCTGATGAATTGCGGCTTTCGAGTAAACAAATTTTCCTAATCTTTCTGTTCAAGCGCCATCTAC | 1.03 RPM ratio (pull-down/input) |
| GATGATTGTTCTCCCAGCTGATGAATTAATGGGATCGAGTAAACAAATTTTCCTAATCTTTCTGTTCAAGCGCCATCTAC | 0.907 RPM ratio (pull-down/input) |
| GATGATTGTTCTCCCAGCTGATGAATTCCGCACGTCGAGTAAACAAATTTTCCTAATCTTTCTGTTCAAGCGCCATCTAC | 0.821 RPM ratio (pull-down/input) |
| GATGATTGTTCTCCCAGCTGATGAATTCCAGTTGTCGAGTAAACAAATTTTCCTAATCTTTCTGTTCAAGCGCCATCTAC | 1.19 RPM ratio (pull-down/input) |
